Laboratory results published in the supplement of paper PMC10126150.
Sequences with one replicate were seen in a single cluster, so their values are uncertain.

System: ATP
Assay: switch fluorescence ratio, 500 uM ATP over buffer (Cy3 cluster intensity, sum of 5 cycles each) (fold (ratio)); higher = stronger signal-on switching upon ATP binding; sequences stand for … in TCGTCGGCAGCGTCAGATGTGTATAAGAGACAGTTTTTTTTTTTTTTTTTTTTTTTTT…TC
Conditions: aptamer strand: ATP DNA aptamer (quencher-CACCTGGGGGAGTATTGCGGAGGAAGG + anchor), 100 nM annealed; ATP concentration: 500 uM; one replicate
Outline: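 Between each of five buffer/ATP cycles, the flow-cell was stripped with NaOH and re-annealed. Each cycle imaged Cy3-labelled switching-strand clusters, annealed to 100 nM quencher-labelled ATP aptamer on a modified Illumina MiSeq flow-cell, first in selection buffer and then after 15 min with 500 uM ATP at 22 °C. The fluorescence ratio is summed target-cycle over summed buffer-cycle Cy3 intensity per cluster, averaged per switch-domain sequence, with clusters outside 100-1000 RFU excluded.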
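Note: ATP exposure 15 min at 22 °C before imaging.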

Row | Sequence | switch fluorescence ratio
1 | TGCTTGTTTG | 0.993
2 | CGTAGTGGA | 1.03
3 | TGAGGTCGCA | 1.02
4 | TACGGACAGC | 1.41
5 | AGGGTCATAG | 0.984
6 | TATGAAGGCT | 0.995
7 | GCCATTTATG | 0.977
8 | ATACTGTTGC | 0.999
9 | TTCGCGTCAG | 0.968
10 | TCGCTCGTTA | 1.01
11 | GACACCTTAT | 1.07
12 | CGTCAGGCTA | 1.08
13 | TTTGAAAGAG | 0.971
14 | TCGAGCCGCC | 1.05
15 | AGAGGAACGT | 0.997
16 | TACGTAATGG | 1.48
17 | ACGTGTATTG | 1.01
18 | TAATTAACGA | 1
19 | AAATGGTAAG | 0.989
20 | GTTAAATGCG | 0.971
21 | TTTTGATTGG | 1.05
22 | GAGGCCACTG | 1.07
23 | CGATTATTTT | 1
24 | CAAAAAAAGG | 0.974
25 | CTGCATCTGT | 1.03
26 | AACAGTCAGC | 1.04

Row | Sequence | switch fluorescence ratio
27 | AGGGCGCCAT | 1.02
28 | CAATACCCGC | 1.33
29 | GCTGGCCCCA | 1.02
30 | ACATTGTAAT | 0.928
31 | TTTGAAGGTT | 1.49
32 | CACGCTTCTT | 0.987
33 | TAGGGGAAAC | 0.957
34 | AAAAAGAACA | 1.03
35 | CCGTGGGATA | 1.03
36 | GCTTCTCCGT | 2.12
37 | ATAGTCGTAG | 1.02
38 | GGCGTAGGGA | 1.06
39 | TGCCCGAGTG | 1.42
40 | TTATTTTGA | 0.979
41 | TAAGATTGCG | 1.01
42 | TAGTTCGAAG | 1.13
43 | GGGCGACCGA | 0.961
44 | GCGCTTTGTC | 1.01
45 | TACGTATCTC | 1.18
46 | TAAGTACTGC | 1.19
47 | CGCATAGAGT | 1.08
48 | TTCCTATTGT | 1.04
49 | TACGGCCGGG | 1
50 | CTTAGCCGGA | 1.01
51 | GACGACAGTG | 0.989
52 | CAGGTCGGGT | 1.05

Row | Sequence | switch fluorescence ratio
53 | TGTCCAGAAG | 0.99
54 | AGCACTGAAG | 0.997
55 | AGGTGAAGGA | 1.01
56 | GGTGCTTACG | 0.985
57 | GCATGTACT | 1.19
58 | CGGGAATGCT | 1.25
59 | CTGATTGAAT | 1
60 | ACCGGCGTGC | 1.04
61 | GAAAGTGTGC | 1.01
62 | ATCTGCTACG | 1.01
63 | GGATACAGGT | 1.01
64 | CGAGATATCT | 0.992
65 | GCACTGATTC | 1.05
66 | GCCCACGGGT | 1.12
67 | GATGGTTGAG | 0.969
68 | GCCGGAATCG | 0.999
69 | CGTGCAATGA | 2.65
70 | TTCCTTATTC | 1.4
71 | TCGTATTCTT | 0.997
72 | TTAAATATCC | 0.999
73 | CTTTTAAAGA | 0.936
74 | GCGCCTTCGA | 1.06
75 | AGGTGGGCAC | 1.05
76 | TGGCTGATCG | 0.986
77 | GTCTCTATGC | 0.943
78 | CCTGAGTACC | 1.02

Row | Sequence | switch fluorescence ratio
79 | ACTGGGGCTT | 1.06
80 | AAAAACTCGA | 1.01
81 | GTTGATAATC | 0.999
82 | ATCTGAAGAC | 2.66
83 | GATGAGGCGC | 1.07
84 | TTACGATCAT | 1.05
85 | AGGTGTGCTG | 1.02
86 | CGCCATATTA | 0.973
87 | CTTCGGTACC | 1.09
88 | TTTGGGAGCG | 1.02
89 | CAACAGGTCA | 0.963
90 | AAATGTGTAT | 0.989
91 | TCGCTAAAAG | 1
92 | ATACAGAGGT | 1.04
93 | TTCGGTCCGG | 0.975
94 | CGGACTCAGT | 1
95 | TCAAATCAGC | 1.02
96 | GCCTATAGCA | 0.959
97 | AGGGGCATAT | 1.07
98 | TAAATGTTTC | 0.993
99 | TTGCCGCCCA | 1.03
100 | AATGTTGGTC | 0.98
101 | ATCCTTAGTT | 1.05
102 | GTTGTGACAC | 0.993
103 | ATGTGGCAAG | 1
104 | GGGTCATAAT | 0.98

Row | Sequence | switch fluorescence ratio
105 | TGTGCCGTTA | 1
106 | CGATATTCGA | 1.03
107 | GGGGTGAAGA | 1.08
108 | TTGGCCCGTC | 0.992
109 | AGCTGCGGCT | 0.955
110 | GTGATGCCCG | 0.985
111 | AAGTGTATGT | 0.993
112 | AATAAAAAC | 0.977
113 | TAGGTCAACT | 1.01
114 | TTGAGAGCCG | 1.03
115 | CCGGGGTGCA | 1.28
116 | AGACGGAGAG | 1.04
117 | AAAGCATCGG | 1.01
118 | GGACACTGGG | 0.89
119 | TACGATTTGT | 1.03
120 | GGGGCTTCGC | 0.915
121 | GAGATTAACA | 0.939
122 | TCCGTACCTT | 1.15
123 | ACTGGCAGAC | 1.49
124 | TTTATCAAT | 1.01
125 | TTGAAGGGAG | 0.989
126 | TTCTCCTGAG | 1.1
127 | GCGGGTTGTT | 1.03
128 | ATTAGCTAGA | 0.975
129 | AATGAGCCGC | 1.03
130 | TTTCCAAATC | 0.967

Row | Sequence | switch fluorescence ratio
131 | ATAGGCGTAT | 0.979
132 | ACGGGAGCCG | 0.951
133 | CGGTGGAAAC | 1.02
134 | TCAAGGGAAT | 1.01
135 | CGACTCAAGA | 2.81
136 | TTCCGTGATA | 3.29
137 | ATCTGGCAAC | 1.17
138 | CTCTTTTAAT | 0.971
139 | CGTTAGTCCT | 1.02
140 | GAAATTATAC | 1.75
141 | CCGGGGGG | 0.997
142 | GGAAGTGCAG | 0.984
143 | AGGTACCAA | 0.987
144 | TAGGGTCAAC | 0.988
145 | CCTTAAAGTG | 1.02
146 | AAATTGAAAC | 1.01
147 | CAGATAGGAT | 1.01
148 | GCATACATCT | 0.993
149 | AAATCGTCTG | 1.05
150 | GTGGGTCCGG | 0.996
151 | AAACAGAGCC | 1.02
152 | GCGTTCGGTT | 0.997
153 | CACAATATT | 1.04
